Data on 92 compounds can be found in PubChem BioAssay AID493035 (The Scripps Research Institute Molecular Screening Center, 2011).

The structures appear in SMILES notation. The whole screen tested about 2,000 compounds, of which about 45 (2%) were called active.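 The calls were made as follows: active = inhibition above the mean of all tested compounds plus 3 SD (cut at about 49% in these data); inactive = the rest.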 The list shows a part of the results.

For the assay, the target named is Perilipin-5 (Homo sapiens) + 1-acylglycerol-3-phosphate O-acyltransferase ABHD5 (Homo sapiens) (UniProt Q00G26+Q8WTS1). Description: blockers of ABHD5 binding to perilipin-5 – cell lysate, split luciferase complementation, luminescence, NIH validation set, pilot screen (AID 493035).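 Also: 0% = DMSO only wells while the 100% control is not stated.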 The following applies: split G. princeps luciferase complementation, lysates, 4 h; at 7.9 µM, active compounds read high.
Chain of UniProt Q00G26 (Q00G26 whole entry, looked up): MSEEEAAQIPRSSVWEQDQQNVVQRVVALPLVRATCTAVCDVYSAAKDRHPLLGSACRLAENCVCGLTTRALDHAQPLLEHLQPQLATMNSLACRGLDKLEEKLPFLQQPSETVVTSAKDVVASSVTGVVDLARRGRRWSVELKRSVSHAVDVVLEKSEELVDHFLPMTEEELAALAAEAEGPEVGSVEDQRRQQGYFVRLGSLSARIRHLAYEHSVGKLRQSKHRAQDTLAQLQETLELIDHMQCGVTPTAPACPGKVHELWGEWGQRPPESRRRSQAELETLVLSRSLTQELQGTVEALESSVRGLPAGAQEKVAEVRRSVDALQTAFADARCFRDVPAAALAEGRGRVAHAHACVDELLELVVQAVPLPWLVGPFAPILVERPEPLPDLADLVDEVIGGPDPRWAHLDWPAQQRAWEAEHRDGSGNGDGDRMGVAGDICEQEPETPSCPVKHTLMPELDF
Chain of UniProt Q00G26 (Q8WTS1 whole entry, looked up): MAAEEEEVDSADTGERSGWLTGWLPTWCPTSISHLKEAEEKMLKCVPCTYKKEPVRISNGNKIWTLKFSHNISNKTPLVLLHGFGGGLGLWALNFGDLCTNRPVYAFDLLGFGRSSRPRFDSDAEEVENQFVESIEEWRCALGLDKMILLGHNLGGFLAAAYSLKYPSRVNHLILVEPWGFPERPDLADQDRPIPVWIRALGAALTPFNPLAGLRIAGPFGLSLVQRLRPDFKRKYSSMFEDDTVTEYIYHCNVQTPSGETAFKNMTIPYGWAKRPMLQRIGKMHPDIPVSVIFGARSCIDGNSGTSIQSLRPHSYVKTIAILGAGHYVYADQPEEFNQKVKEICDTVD
As a reminder, the inhibition is the drop in the measured response relative to a control, in per cent. As to `COc1cc(C2CC(=O)NC3=C2C(=O)CC(C)(C)C3)ccc1O` (configuration not stated), the inhibition was inactive: 2.93%.
As to `N#C/C(=C/c1ccccc1)C(=O)NCc1ccccc1`, the inhibition is active: 62.6%.
`Cc1cccc(C(=O)c2cccc(C)c2)c1`: the inhibition is inactive: -8.84%.
Consider `O=C(CCC1CCCN(C(=O)c2ccsc2)C1)NCc1ccc(F)c(F)c1` (configuration not stated), for which the inhibition is inactive: -5.13%.
Consider `O=C(O)CCCc1ccccc1`, for which the inhibition is inactive: 1.44%.
As for `Cc1cnc(NC(=O)C2=C(O)c3ccccc3S(=O)(=O)N2C)s1`, the inhibition was inactive: -3.7%.
With `COc1ccc(/C=C\c2nc(=O)c3ccccc3o2)cc1`, the inhibition was inactive: 2.36%.
Regarding `CC1(C)O[C@@H]2C[C@H]3[C@@H]4CCC5=CC(=O)C=C[C@]5(C)[C@@]4(F)[C@@H](O)C[C@]3(C)[C@]2(C(=O)CO)O1`, the inhibition is inactive: -8.39%.
`CCn1nc(C(=O)O)c(=O)c2cc3c(cc21)OCO3`: the inhibition was inactive: -10.8%.
As for `COc1cccc(=O)c2c(C)n(CC(=O)c3ccccc3)c(C)c12`, the inhibition is inactive: 23.8%.
As for `CC(=O)Nc1ccc(S(=O)(=O)c2ccc(N)cc2)cc1`, the inhibition is inactive: -7.41%.
In the case of `Fc1ccc(-n2cc(CNCCc3ccccn3)c(-c3ccccc3Cl)n2)cc1`, the inhibition is inactive: -4.93%.
In the case of `CCCN1CCC(NC(=O)Nc2ccc(Br)cc2)CC1`, the inhibition is inactive: -11.9%.
Turning to `CCS(=O)(=O)Nc1cc(OC)c(OC)cc1Cc1nccc2cc(OC)c(OC)cc12`, the inhibition is inactive: -5.76%.
To `CN(C)c1ccc(CNCCC(Cc2ccccc2)c2ccco2)cc1` (configuration not stated) belongs inactive: -20.2%; to `O=C1ON=C(c2ccc(Cl)cc2)/C1=C/c1ccc(O)cc1`, active: 70.2%; to `Cc1ccc(Cl)c(Nc2ccccc2C(=O)O)c1Cl`, inactive: 16.1%.
Consider `CC(C(=O)O)c1ccc(N2Cc3ccccc3C2=O)cc1` (configuration not stated), for which the inhibition is inactive: -3.18%.
With `CCOc1ccccc1OCCOc1ccc(F)cc1`, the inhibition is inactive: -8.51%.
As to `O=C1C(Cc2c[nH]c3ccccc23)NC(=S)N1Cc1ccccc1` (configuration not stated), the inhibition was inactive: -0.61%.
To `COc1ccc(N2C(=O)[C@@H]3Cc4ccccc4CN3C2=O)cc1` belongs inactive: -5.47%.
To `CCC(C(=O)OCCN(CC)CC)c1ccccc1` (configuration not stated) belongs inactive: 20.9%; to `CC(C)(C)n1c(=O)[nH]c2c(c1=O)CCC2`, inactive: 0.44%.
`O=C1CC2(CCCC2)CC(=O)N1CCCCN1CCN(c2ncccn2)CC1`: the inhibition was inactive: -12.6%.
To `COc1ccc2c(CC(=O)NCC3CCC(C(=O)O)CC3)cc(=O)oc2c1` (configuration not stated) belongs inactive: 2.99%.
As to `CC[C@H]1OC(=O)[C@H](C)[C@@H](O[C@H]2C[C@@](C)(OC)[C@@H](O)[C@H](C)O2)[C@H](C)[C@@H](O[C@@H]2O[C@H](C)C[C@H](N(C)C)[C@H]2O)[C@](C)(O)C[C@@H](C)[C@@H]2N[C@@H](COCCOC)O[C@H]([C@H]2C)[C@]1(C)O`, the inhibition was inactive: -9.34%.
For the compound `CC(=O)O[C@H]1C(=O)[C@@]2(C)[C@H]([C@H](OC(=O)c3ccccc3)[C@]3(O)C[C@H](OC(=O)[C@H](O)C(NC(=O)c4ccccc4)c4ccccc4)C(C)=C1C3(C)C)[C@]1(OC(C)=O)CO[C@@H]1C[C@@H]2O` (some centres not stated), the inhibition was inactive: -11.7%.
`CC(=O)Oc1cc2oc(=O)cc(C)c2cc1OC(C)=O`: the inhibition is inactive: -3.58%.
For the compound `O=C(NCCC(c1ccccc1)c1ccco1)c1cccs1` (configuration not stated), the inhibition is inactive: 8.42%.
For the compound `Cn1c2[n+](c3ccc(Cl)cc3c1=O)Cc1ccccc1-2`, the inhibition is inactive: 6.51%.
On to `O=C(CCCn1c(=O)oc2ccccc21)N1CCN(c2ccc(F)cc2)CC1`, for which the inhibition was inactive: -0.97%.
Next, `Cc1ccc(C(=O)Nc2ccccc2C(=O)NC(C(=O)O)C(C)C)cc1` (configuration not stated): inactive: 0.22%; `CCn1c(SCC(=O)c2ccccc2)nc2ccccc2c1=O`: inactive: 7.6%.
For the compound `COc1ccc(C(=O)C2CCCCC2=O)cc1` (configuration not stated), the inhibition was inactive: -4.45%.
`Cc1ccc(-n2cc(CNCCN3CCOC3=O)c(-c3ccc(F)cc3)n2)cc1`: the inhibition is inactive: -13.6%.
As for `O=C(COc1ccccc1)Nc1ccc2c(c1)C(=O)N(CC1CCCO1)C2=O` (configuration not stated), the inhibition is inactive: -11.7%.
For `COc1cc(Cl)cc2c1Sc1ccccc1/C2=C/CCN(C)C`, the inhibition is inactive: 6.56%.
In the case of `COc1ccc(C2CC(c3c(O)cc(C)oc3=O)=NCCS2)c(OC)c1` (configuration not stated), the inhibition was inactive: 22.5%.
Next, `O=C(Cc1ccccc1[N+](=O)[O-])NCCCN1CCOCC1`: inactive: -4.37%; `CCOC(=O)c1cccc(C(=O)OCC)n1`: inactive: -3.81%.
To `CC(C)(C)[C@]1(O)CCN2C[C@H]3c4ccccc4CCc4cccc(c43)[C@@H]2C1` belongs inactive: -1.68%; to `COc1ccc(C2=C(CN(C)C)C(c3ccccc3)c3ccccc3O2)cc1` (configuration not stated), inactive: 1.13%.
On to `CN1[C@@H]2CC[C@H]1CC(OC(=O)C(CO)c1ccccc1)C2` (some centres not stated), for which the inhibition is inactive: -13%.
As for `CC1Cc2ccccc2N1NC(=O)c1ccc(Cl)c(S(N)(=O)=O)c1` (configuration not stated), the inhibition was inactive: -5.24%.
Regarding `COc1ccc(CNCCC2(C(C)C)CCOC(C)(C)C2)cc1` (configuration not stated), the inhibition was inactive: -3.58%.
`CCN(CC)c1ccc([C@H]2[C@@H]3CCCC[C@]3(O)CCN2CC(=O)NCc2ccco2)cc1`: the inhibition is inactive: 2.08%.
On to `COC(=O)c1sccc1NC(=O)Nc1ccccc1F`, for which the inhibition was inactive: 0.62%.
Regarding `O=C(O)COc1ccc2occ(C(=O)c3ccccc3)c2c1`, the inhibition was inactive: 1.54%.
As for `CN(C)c1ccc(Nc2c3c4c(cccc4n(C)c2=O)C(=O)c2ccccc2-3)cc1`, the inhibition was inactive: 38.4%.
Turning to `COc1cc(-c2cccs2)cc(=O)c2c(C)oc(C)c12`, the inhibition was inactive: 47%.
Turning to `O=Cc1ccccc1Oc1ccccc1`, the inhibition was inactive: -9.76%.
With `O=C(/C=C/c1ccc(F)cc1)NC(=S)N1CCCCC1c1cccnc1` (configuration not stated), the inhibition is inactive: -5.93%.
To `O=C(c1ccc(-c2ccccc2)c(F)c1)C1CCCN(C(=O)c2cncs2)C1` (configuration not stated) belongs inactive: 9.09%.
Consider `COc1ccc(C(=O)COc2ccc(F)cc2)c(O)c1`, for which the inhibition was inactive: -6.5%.
As for `COc1ccc2c(c1OC)C(=O)N1C2SC[C@H]1C(=O)NC1CC(C)(C)NC(C)(C)C1` (some centres not stated), the inhibition is inactive: -1.21%.
`O=C(NC1CCCCC1)c1cc2nc(-c3ccco3)cc(C(F)(F)F)n2n1`: the inhibition is inactive: -0.83%.
`Cc1c(OCC(F)(F)F)ccnc1CS(=O)c1nc2ccccc2[nH]1` (configuration not stated): the inhibition was inactive: 22.8%.
For `CC(C)OC(=O)c1ccc(NC(=O)c2cncc(Br)c2)cc1`, the inhibition was inactive: -4.98%.
Take `CN(C)CCN(Cc1cccs1)c1ccccn1`: the inhibition is inactive: -12.6%.
`CCNC(=O)C12CCC(C)(C(=O)O1)C2(C)C` (configuration not stated): the inhibition is inactive: -5.33%.
Take `COc1cc2c(cc1OC)C(c1cc3ccccc3oc1=O)=NC(C)(C)C2`: the inhibition is inactive: 10.2%.
To `CCOc1cc2oc(=O)c3c(c2cc1Cl)CCC3` belongs inactive: -4.77%; to `COc1ccc2oc(-c3ccco3)cc(=O)c2c1`, inactive: 0.3%.
For `NC(=O)N1c2ccccc2C=Cc2ccccc21`, the inhibition is inactive: -6.16%.
Next, `COc1cc(C2NCCc3c2[nH]c2ccccc32)ccc1OC(C)C` (configuration not stated): inactive: 0.82%; `COc1ccc(N2C(=O)C3CCCN3C2=O)cc1` (configuration not stated): inactive: -3.88%.
In the case of `COc1cc(=O)n(C)c2ccccc12`, the inhibition is inactive: -8.96%.
Take `Cc1cc(C(=O)Nc2ccccc2C(=O)N2CCCCC2)ccc1[N+](=O)[O-]`: the inhibition was inactive: 0.5%.
Next, `CN(Cc1ccccc1)CC(O)COc1ccc(CNCc2cccnc2)cc1` (configuration not stated): inactive: -7.35%; `COc1ccc2[nH]c3c(c2c1)CCNC3C1CC=C(C)CC1` (configuration not stated): inactive: -5.37%; `CCOC(=O)C1(CCCc2ccccc2)CCN(C2CCN(C(C)=O)CC2)CC1`: inactive: 2.91%.
For `NC(=O)[C@@H]1[C@@H]2C(=O)N(c3ccc(F)cc3)C(=O)[C@@H]2[C@H]2C=Cc3ccccc3N21`, the inhibition was inactive: 30.2%.
To `COc1ccc(C(=O)/C=C/c2ccc(OC(=O)c3cc(OC)c(OC)c(OC)c3)cc2)cc1` belongs inactive: 40.8%; to `Cc1ccc2occ(C(=O)c3ccco3)c(=O)c2c1`, inactive: -0.64%.
For the compound `O=C(NC(CO)Cc1ccc([N+](=O)[O-])cc1)C(Cl)Cl` (configuration not stated), the inhibition was inactive: 4.04%.
Next, `CC(=O)NC(Cc1ccccc1)C(=O)OCC(=O)c1ccccc1` (configuration not stated): inactive: -3.8%; `COc1cccc(C2CC(=O)C3=C(C2)Nc2ccccc2N(C(=O)CCC(=O)O)C3c2ccc(F)cc2)c1` (configuration not stated): inactive: 0.5%; `CC(=O)NC(NC(=S)N1CCCCCC1)C(Cl)(Cl)Cl` (configuration not stated): inactive: -13%.
Take `COc1ccc(-c2nc(C)c(C(C)=O)n2O)cc1OC`: the inhibition is inactive: 38.2%.
For the compound `CC(C)(C)N(Cc1ccccc1)C(=O)c1ccc(Br)o1`, the inhibition is inactive: -10.2%.
For the compound `CCOC(=O)C(Cc1cc(C(C)=O)ccc1OC(C)C)C(=O)OCC`, the inhibition was inactive: -3.49%.
As for `COc1ccc(CN(CCN(C)C)c2ccccn2)cc1`, the inhibition was inactive: -3.99%.
As to `CCCNC(C)C(=O)Nc1ccccc1C` (configuration not stated), the inhibition is inactive: -6.92%.
With `CC(COc1ccccc1)N(CCCl)Cc1ccccc1` (configuration not stated), the inhibition is inactive: -2.48%.
`CCCCC[C@H](O)/C=C/[C@@H]1[C@@H](C/C=C\CCCC(=O)O)[C@@H](O)C[C@H]1O`: the inhibition was inactive: -7.38%.
On to `CN(CCO)CC(O)Cn1cnc2c1c(=O)n(C)c(=O)n2C` (configuration not stated) (tested in a mixture with another compound), for which the inhibition is inactive: -14%.
Take `Cc1nc(C(=O)Nc2ccccc2Cl)cc2c1[nH]c1ccccc12`: the inhibition is inactive: -2.1%.
With `COc1ccc2c(c1OC)C(=O)NC(C)=C(C(=O)OC(C)(C)C)C2O` (configuration not stated), the inhibition is inactive: 2.87%.
In the case of `COc1ccc(CNC(=O)c2c(O)c3cccc4c3n(c2=O)CCC4)cc1`, the inhibition was inactive: 3.86%.
Next, `O=C1NC2(Nc3ccccc31)C(=O)Nc1ccc(Br)cc12` (configuration not stated): inactive: 9.32%; `COc1ccc(CC(=O)NCC2(c3ccc(OC)c(OC)c3)CCOCC2)cc1`: inactive: -6.16%; `O=C(O)[C@H](Cc1ccccc1)NC(=O)N1CCC(Cc2ccccc2)CC1`: inactive: -4.64%.
